The text below walks through data of paper PMC12040169 (PLOS Biology, 2025).

The test has as its system T1, C. trachomatis L2/434/Bu expressing GFP (CTL2-GFP).
T1 construct: L2/434/Bu GFP intracellular growth in HeLa cells
Details: species or system HeLa; C. trachomatis total inclusion area by high-content imaging, normalised to DMSO. The procedure, abridged:
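Imaging read-out: GFP inclusions and Hoechst nuclei captured by high-content imaging after fixation. Inclusion area/number = chlamydial growth; nuclei count = host cell viability. MIC calculated per earlier method.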

[1] abbreviates: total inclusion area; 28.5 h, 10 µM; inhibitor.

The structures appear in SMILES notation. Like-named read-outs stand apart in the source and are kept apart here. This is one part of the list.

Regarding `Cc1ccc(S(=O)(=O)NC(C)C(=O)Nc2cc(-c3nc4ccccc4[nH]3)ccc2C)cc1` (centres unmarked) [CBK110320], under setting [1], the “% of control remaining” value was found to be 99.78.
Still for that read-out and setting: the figure for `COc1ccc(-c2nnc([C@H]3CCN(C(=O)C4CC4)C3)o2)cc1` [CBK289409] is 96.3516; for `CCOC(=O)c1cnn2c(O)cc(CN(Cc3cccs3)C3CC3)nc12` [CBK305625] it is 77.5732.
Same read-out and setting: the figure for `Cc1ccc(CN(CCCN(C)C)Cc2cccc(O)c2)o1` [CBK283173] is 67.6252.
Consider `O=C(Nc1cccnc1)c1cnc2cc(C(F)(F)F)ccc2c1O` [CBK107474T], for which the “% of control remaining” value (total inclusion area, 28.5 h, 10 µM, inhibitor) is listed as 84.073.
For `COc1ccc(-c2noc(CNC(=O)Nc3ccc(F)cc3)n2)cc1OC` [CBK269784], the “% of control remaining” value under setting [1] is 104.47.
For `O=C(Nc1cccc(C(=O)O)c1)/C(=C\c1ccc2c(c1)OCO2)NC(=O)c1ccccc1Cl` [CBK263746], the “% of control remaining” value under setting [1] stood at 104.68.
Still for that read-out and setting: the figure for `CCCc1cc(=O)nc(N/C(=N\C(=O)c2ccccc2)Nc2ccc3c(c2)OCCO3)[nH]1` [CBK266485] is 78.829.
On the same count and under the same terms, the figure for `CC(C)OC(=O)c1cccnc1N1CCN(CCCC(c2ccc(F)cc2)c2ccc(F)cc2)CC1` [CBK025340C] is 56.0986; for `CCn1c2c(c(=O)[nH]c1=O)C(c1ccccc1)C1=C(COC1=O)N2` (centres unmarked) [CBK287704] it is 122.943; for `COc1ccc2c(c1)N1CCCN=C1N2C` [CBK011358C] it is 89.3426.
On to `COc1ccc([N+](=O)[O-])cc1COc1ccc2c(C(F)(F)F)cc(=O)oc2c1` [CBK265173], for which, under setting [1], the “% of control remaining” value is 100.346.
On the same count and under the same terms, the figure for `CC(Sc1nc(C2CC2)n(-c2ccccc2)n1)C(=O)N1CCNC1=O` (centres unmarked) [CBK297144] is 83.0064; for `Cc1cc(-c2ccccc2)nc(SCC(=O)Nc2nnc(C)s2)n1` [CBK058194] it is 93.4624.
As for `OC1(c2cccnc2F)CCN(Cc2c(F)cccc2F)CC1` [CBK283149], the “% of control remaining” value under setting [1] was 79.253.
Same read-out and setting: next, `Cc1ccc(S(=O)(=O)NCC(=O)Nc2ccc(Cl)nc2)cc1` [CBK091355]: 95.1259; `COc1ccc(C2C(C(C)=O)=C(O)C(=O)N2CCCC(=O)O)cc1` (centres unmarked) [CBK263774]: 103.152; `CS(=O)(=O)N1CC2(CCN(CCCC#N)CC2)c2ccccc21` [CBK084014]: 97.662.
On the same count and under the same terms, next, `O=c1[nH]c2ncc(-c3ccsc3)nc2n1CC1CCOCC1` [CBK064293]: 93.089; `O=C(NC(NCc1ccco1)C(Cl)(Cl)Cl)c1ccc(Br)cc1` (centres unmarked) [CBK262174]: 85.7705.
The same measure, in the same setting: the figure for `COCCNC(=O)c1cc(-c2ccc(Cl)cc2)cnc1NS(C)(=O)=O` [CBK106421] is 114.685; for `COc1ccc(CCN2C(=O)c3ccccc3C2(O)c2ncc[nH]2)cc1OC` (centres unmarked) [CBK262717] it is 90.9688; for `CC(C)c1noc(N2CCC(Oc3ccc(-c4ccc(S(C)(=O)=O)cc4)cn3)CC2)n1` [CBK158821] it is 39.7808.
For `Cc1cccc(C(=O)Nc2ccccc2C(=O)N2CCN(C)CC2)c1` [CBK268565], the “% of control remaining” value under setting [1] was found to be 86.7251.
The same measure, in the same setting: the figure for `Cc1nn(C)c(Cl)c1S(=O)(=O)Nc1cccc(-c2nnn[nH]2)c1` [CBK062127] is 97.6733.
Same read-out and setting: next, `O=C(Nc1cccc(F)c1)N(Cc1cccnc1)CC1CCCO1` (centres unmarked) [CBK304065]: 114.437.
`O=C(Nc1ccc(S(=O)(=O)Nc2nccs2)cc1)C1CC(=O)N(c2ccccc2)C1` (centres unmarked) [CBK264732]: the “% of control remaining” value under setting [1] stood at 51.7441.
Same read-out and setting: next, `Cc1cccc(OC(=O)C2C(c3ccccc3)C(C(=O)O)C2c2ccccc2)c1` (centres unmarked) [CBK263843]: 81.3779.
Same read-out and setting: the figure for `CN1CCN(S(=O)(=O)c2ccc(-c3cc(C(F)(F)F)on3)s2)CC1` [CBK057780] is 116.686; for `COc1cc(Cl)cc(/C=N/Nc2nc(Nc3ccc(C)c(Cl)c3)nc(N3CCOCC3)n2)c1O` [CBK262436] it is 121.409.
Turning to `CN(C)c1ccc(CCNS(=O)(=O)c2ccc3[nH]c(=O)[nH]c(=O)c3c2)cc1` [CBK285938], under setting [1], the “% of control remaining” value worked out at 108.553.
For the compound `Cc1c(S(=O)(=O)Nc2cccc(C(=O)OCC3CCCN(C)C3)c2)sc2ccc(Cl)cc12` (centres unmarked) [CBK167735G], the “% of control remaining” value under setting [1] is reported as 79.3859.
For the compound `Cc1noc(C)c1NC(=O)Cc1cccnc1` [CBK200391], the “% of control remaining” value under setting [1] stood at 84.9111.
On to `Cc1ccc(C(CC(=O)O)NC(=O)c2ccc(S(=O)(=O)N3CCCC(C)C3)cc2)cc1` (centres unmarked) [CBK295345], for which the “% of control remaining” value under setting [1] amounted to 108.904.
`Cc1ccc(N2CC(c3nnc(N)o3)CC2=O)cc1` (centres unmarked) [CBK288061]: the “% of control remaining” value under setting [1] is 94.9372.
On the same count and under the same terms, the figure for `Cc1cc2c(cc3c(=O)n(CC(=O)N4CCCCCC4)nc(C)n32)o1` [CBK283591] is 48.9732; for `O=C(NC(=S)Nc1ccc(-c2nc3ncccc3o2)cc1)c1ccc2c(c1)OCCO2` [CBK265812] it is 111.191; for `O[C@H]1[C@H](NCc2ccco2)[C@H]2CO[C@H](O2)[C@@H]1N1CCCCC1` [CBK288825] it is 126.216.
